# According to the supplement of paper PMC7826260:
# The list shows a part of the results. One pool of 16,384 single-stranded DNAs met each Rep nickase domain in vitro (1 h at 37 °C, 3 µM enzyme); the outer parts of the 90-letter strands are left off. The score is log2 (uncut reads / reads without enzyme); uncut sequences lie near 0, cut ones below; no hit call is given. Because reads are shares of a total, they shift together; values above 0 arise when much of the pool is cut.
# Test system: T1, Rep nickase domain of Muscovy duck circovirus
# T1 sequence (residues 1-111, tag not shown): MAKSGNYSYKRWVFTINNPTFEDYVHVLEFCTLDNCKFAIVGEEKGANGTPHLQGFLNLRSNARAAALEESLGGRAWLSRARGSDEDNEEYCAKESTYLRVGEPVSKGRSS
# Test: uncleaved DNA left, log2 of reads against the no-enzyme library (log2 ratio); higher = less cleavage (more negative = more Rep cleavage of the k-mer); sequences stand for … in CTCGTCCG…ACCGGAGA
# Description: (§1)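 A pool of 90-nt single-stranded DNAs with seven random bases just before the constant AC of the nick site (name = the seven bases) was cut by 3 µM recombinant His6-SUMO-tagged Rep nickase domain (300 nM DNA, 50 mM HEPES pH 8.0, 50 mM NaCl, 1 mM MnCl2, 1 h, 37 °C, three replicates). Uncut DNA was amplified and sequenced.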
row,Sequence,uncleaved DNA left (log2)
1,CGGTTTT,-1.23
2,CAGCTGT,0.0691
3,TGAGGAG,0.0529
4,TGTCTAG,0.0228
5,AGAGGTA,0.127
6,ACTTCGG,-0.0721
7,CGTGCCG,-0.0701
8,GGGCCCG,-0.00443
9,TGCCCTA,-0.0325
10,ACATGTG,0.26
11,ACGCAGC,0.0941
12,CCCTGTG,0.00342
13,GCTAAAA,0.0421
14,CTACCAG,-0.215
15,AAAGCGA,0.0321
16,CCGAGAT,0.136
17,AGGCCCG,0.0948
18,TCTAAAG,-0.0451
19,GAGCCAG,0.0228
20,TGGGATC,-0.142

row,Sequence,uncleaved DNA left (log2)
1,GTTTTCG,0.0988
2,TTGTCGC,-0.0691
3,GGATTTC,-0.0179
4,CATAACG,0.00779
5,GTCAAGC,0.0252
6,AGCCTAG,0.0579
7,GGGTGCT,0.114
8,CAAAGAC,0.0332
9,GTGATTG,0.0351
10,CAGCGGG,0.208
11,GGATGAC,0.0315
12,TGTCATG,-0.12
13,GCTGCCC,-0.00764
14,CGTTCGC,-0.0679
15,ATTCTAC,-0.515
16,TTACCGT,-0.0773
17,CACAAAA,-0.00955
18,TCCTAAT,-1.78
19,TGTCTCT,0.0613
20,CAGCACA,0.0731

# Test system: T2, Rep nickase domain of banana bunchy top virus
# T2 sequence (residues 1-94, tag not shown): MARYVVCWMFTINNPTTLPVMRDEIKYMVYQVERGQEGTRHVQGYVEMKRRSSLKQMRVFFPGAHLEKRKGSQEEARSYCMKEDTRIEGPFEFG
# Test: as above
# Description: as §1
row,Sequence,uncleaved DNA left (log2)
1,CGGTTTT,0.000852
2,CAGCTGT,0.0754
3,TGAGGAG,-0.0574
4,TGTCTAG,-0.0767
5,AGAGGTA,0.178
6,ACTTCGG,-0.036
7,CGTGCCG,-0.201
8,GGGCCCG,0.00786
9,TGCCCTA,-0.00086
10,ACATGTG,0.125
11,ACGCAGC,-0.0226
12,CCCTGTG,-0.0295
13,GCTAAAA,0.17
14,CTACCAG,-0.119
15,AAAGCGA,-0.0234
16,CCGAGAT,0.125
17,AGGCCCG,0.0564
18,TCTAAAG,-0.125
19,GAGCCAG,0.101
20,TGGGATC,0.0341

row,Sequence,uncleaved DNA left (log2)
1,GTTTTCG,0.0729
2,TTGTCGC,-0.155
3,GGATTTC,-0.0275
4,CATAACG,0.0219
5,GTCAAGC,0.0218
6,AGCCTAG,0.0868
7,GGGTGCT,-0.0042
8,CAAAGAC,0.00414
9,GTGATTG,0.00614
10,CAGCGGG,0.0874
11,GGATGAC,0.0373
12,TGTCATG,-0.0695
13,GCTGCCC,0.0548
14,CGTTCGC,0.0165
15,ATTCTAC,-0.159
16,TTACCGT,-0.172
17,CACAAAA,0.016
18,TCCTAAT,-0.00417
19,TGTCTCT,-0.0608
20,CAGCACA,0.0676

# Test system: T3, Rep nickase domain of cabbage leaf curl virus
# T3 sequence (residues 1-116, tag not shown): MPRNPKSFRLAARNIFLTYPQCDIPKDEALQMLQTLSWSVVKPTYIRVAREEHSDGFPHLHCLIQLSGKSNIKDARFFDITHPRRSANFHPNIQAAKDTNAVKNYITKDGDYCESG
# Test: as above
# Description: as §1
row,Sequence,uncleaved DNA left (log2)
1,CGGTTTT,0.288
2,CAGCTGT,0.346
3,TGAGGAG,0.0979
4,TGTCTAG,-0.537
5,AGAGGTA,0.378
6,ACTTCGG,-0.181
7,CGTGCCG,-0.832
8,GGGCCCG,0.639
9,TGCCCTA,0.25
10,ACATGTG,-0.404
11,ACGCAGC,-0.518
12,CCCTGTG,-0.72
13,GCTAAAA,0.179
14,CTACCAG,-0.958
15,AAAGCGA,-0.673
16,CCGAGAT,0.549
17,AGGCCCG,0.58
18,TCTAAAG,-0.764
19,GAGCCAG,-0.123
20,TGGGATC,0.663

row,Sequence,uncleaved DNA left (log2)
1,GTTTTCG,-0.474
2,TTGTCGC,-0.941
3,GGATTTC,0.481
4,CATAACG,-0.796
5,GTCAAGC,0.23
6,AGCCTAG,-0.109
7,GGGTGCT,0.801
8,CAAAGAC,0.0162
9,GTGATTG,-0.068
10,CAGCGGG,-0.134
11,GGATGAC,0.808
12,TGTCATG,-0.341
13,GCTGCCC,0.0464
14,CGTTCGC,-0.339
15,ATTCTAC,-0.438
16,TTACCGT,-0.508
17,CACAAAA,0.022
18,TCCTAAT,0.0802
19,TGTCTCT,0.182
20,CAGCACA,0.0106
